Results: PubChem BioAssay AID1347417 (National Center for Advancing Translational Sciences (NCATS), 2020)
The campaign covered roughly 120,000 compounds. About 5,300 (4.4%) were called active. The inconclusive results got no clear call from the source; some entries with a clear call stand among them for comparison. Calls come from the whole dose curve; as a rule, active = well fitted inhibition curve with a large enough effect; inconclusive = small, poorly fitted or top-dose-only effect; inactive = no such curve, though single readings can be large or run the other way. Potencies beside an inconclusive call are fits to weak or partial responses and may not hold up.

Assay: qHTS Primary assay for Inhibitors of Plasmodium falciparum Dd2 growth in vitro; note: nearly all actives have a fitted effect of over 65% in size;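 for activity, negative = inhibition: plate controls were DMSO vehicle for no effect and reference drug for full effect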
Details: P. falciparum Dd2 growth, SYBR Green, 72 h; activity, negative = inhibition: at 28.9 µM (top of the series) unless noted; series mostly up to 28.9 µM
Procedure, shortened: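 Infected erythrocytes (Dd2, 0.3% parasitemia, 2.5% hematocrit final) are added to compound in RPMI-1640/Albumax II medium, grown 72 h at 37C in low oxygen, then lysed with saponin/Triton-X containing SYBR Green and read by fluorescence.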
Potency is the fitted concentration of half-maximal effect; tags give direction and shape of the fitted curve.

| Compound | Potency | activity, negative = inhibition | outcome |
| --- | --- | --- | --- |
| COc1ccccc1NC(=O)NCC1CCN(Cc2cccnc2)C1 (centres undefined) | inconclusive: 10 µM [inhibitor, partial curve, poor fit] | – | – |
| CCCNC(=O)c1ccc2c(c1)N=C(C)c1c(C)ccc(C)c1S2 | inconclusive: 8.91 µM [inhibitor, single point] | – | – |
| O=C(NCCCN1CCN(c2ccccc2)CC1)c1nnc(Cc2c(F)cccc2Cl)o1 | inconclusive: 17.8 µM [inhibitor, single point] | – | – |
| Cc1ccc(-n2cccc2CC(=O)NC(C)c2ccccn2)cc1 (centres undefined) | inconclusive: 15.8 µM [inhibitor, single point] | – | – |
| O=c1cc(N2CCOCC2)oc2c(N3CCN(c4ccccn4)CC3)nccc12 | inconclusive: 0.562 µM [inhibitor, full curve, poor fit] | – | – |
| O=C(O)c1ccc(CN2CCOC[C@H]2c2ncc(-c3ccc(C(F)(F)F)cc3)[nH]2)cc1 | inconclusive: 12.6 µM [inhibitor, single point] | – | – |
| CCNc1ncc(C(=O)N[C@H](C2CCNCC2)C2CC(O)C2)cn1 (some centres undefined) | – | inactive: -9.7% | – |
| O=C(OCc1ccccc1)N1CCOCC12CCN(Cc1ccc3[nH]ccc3c1)CC2 | active: 7.08 µM | – | – |
| CC(C)(C)OC(=O)N1CCC(c2c(C(=O)NCCN3CCC(Cc4ccccc4)CC3)cnn2-c2cccc(Cl)c2)CC1 | inconclusive: 1 µM [inhibitor, single point] | – | – |
| Cc1cccc(N2CCN(C(=O)c3cc(S(=O)(=O)N4CCC(C)CC4)cn3C)CC2)c1C | inconclusive: 12.6 µM [inhibitor, partial curve, poor fit] | – | – |
| Cc1c(-c2cn(C)c(=O)n3cc(COc4ccccc4)nc23)cnn1C | inconclusive: 14.1 µM [inhibitor, partial curve, poor fit] | – | – |
| O=C1NCc2ccccc2CC12CCCN2Cc1cc(F)ccc1F (centres undefined) | inconclusive: 17.8 µM [inhibitor, single point] | – | – |
| O=C(c1ccc(F)cn1)N1CC(F)(F)C[C@H]1c1nc(C2CC2)no1 | – | inactive: -1.22% | – |
| Clc1cccc(-n2ncc3c(NC4CCCCC4)ncnc32)c1 | inconclusive: 17.8 µM [inhibitor, single point] | – | – |
| O=C(NC1CCN(c2nc3ncccc3o2)CC1)c1ccccc1F | inconclusive: 3.98 µM [inhibitor, single point] | – | – |
| COc1ccc(CNC(=O)N2CCCC(Cc3noc(-c4cnccn4)n3)C2)cc1 (centres undefined) | – | – | inactive |
| Cc1noc2c(Nc3ccc(Cl)cc3)cc(-c3cccnc3)nc12 | inconclusive: 15.8 µM [inhibitor, single point] | – | – |
| Cc1cc(N2CCN(Cc3nc(-c4cccc(Cl)c4)no3)CC2)cc(C)n1 | active: 10 µM | – | – |
| O=C(Nc1sc2c(c1C(=O)Nc1ccccc1Cl)CCCC2)c1ccccc1F | – | inactive: 3.8% | – |
| COc1ccc(CCNC(=O)CN(c2ccccc2OC)S(=O)(=O)c2ccc(C)cc2)cc1 | inconclusive: 17.8 µM [inhibitor, single point] | – | – |
| Cc1ccncc1C(=O)N1CCCN(Cc2ccncc2)C(c2ccccc2)CC(=O)NCC1 (centres undefined) | inconclusive: 17.8 µM [inhibitor, single point] | – | – |
| Cc1ccc(NC(=O)CSc2nc(C)c(Cc3ccccc3)c(=O)[nH]2)cc1 | – | inactive: 34.2% | – |

| Compound | Potency | activity, negative = inhibition | outcome |
| --- | --- | --- | --- |
| CCC(Sc1nc2ccccc2c2nc(CCc3c(C)n[nH]c3C)nn12)C(=O)Nc1ccc(F)cc1 (centres undefined) | active: 7.94 µM | – | – |
| CN1CCCCCCN(C(=O)C2CCOCC2)[C@H]2CCC[C@H]2C1=O | – | inactive: 6.93% | – |
| C[C@@H]1CN(C2(C(=O)N[C@@H](C)C(N)=O)Cc3ccccc3C2)C[C@H](C)O1 | – | inactive: -1.83% | – |
| Cc1ccccc1Cn1cc(CCC(=O)NC(C)c2ccccc2)c2ccccc21 (centres undefined) | inconclusive: 10 µM [inhibitor, partial curve, poor fit] | – | – |
| CCC(C)c1ccc(OCC(=O)Nc2cccc(-c3nc4ncccc4o3)c2)cc1 (centres undefined) | active: 2.51 µM | – | – |
| COc1ccc(CN2CCC3(CC2)CC(C)=NO3)cc1 | – | inactive: -18.2% [at 44.1 µM] | – |
| CCC(=O)N1CCN(c2nc3c(s2)CC(C(=O)NCc2cccs2)CC3)CC1 (centres undefined) | inconclusive: 15.8 µM [inhibitor, partial curve, poor fit] | – | – |
| O=C(Cn1ncc2c3ccccc3n(Cc3ccc(Cl)cc3)c2c1=O)N1CCCCCC1 | inconclusive: 14.1 µM [inhibitor, single point] | – | – |
| CC(=O)c1ccc(NC(=O)NC[C@H]2C[C@@H]3CCN2C[C@@H]3CN(C)Cc2ccccc2)cc1 | inconclusive: 28.2 µM [inhibitor, single point] | – | – |
| COc1cccc(-c2cn3c(n2)sc2cc(C(=O)NC4CCCCCC4)ccc23)c1 | inconclusive: 11.2 µM [inhibitor, single point] | – | – |
| Cc1noc(-c2cn(C3CCCN(C(=O)c4ccc(Cl)s4)C3)nn2)n1 (centres undefined) | inconclusive: 3.98 µM [inhibitor, partial curve, poor fit] | – | – |
| Cc1ccc(NC(=O)c2c(NC(=O)c3ccco3)sc3c2CCC(C(C)(C)C)C3)c(C)c1 (centres undefined) | inconclusive: 0.0398 µM [inhibitor, full curve, poor fit] | – | – |
| CCc1ccc(NC(=O)c2cc(S(=O)(=O)NC3CCCC3)ccc2F)cc1 | inconclusive: 17.8 µM [inhibitor, single point] | – | – |
| COc1cc(OC)c(NC(=O)c2nnn(Cc3ccc(C)cc3)c2N)cc1Cl | inconclusive: 17.8 µM [inhibitor, single point] | – | – |
| COc1ccc(C(=O)N[C@H]2CC[C@]3(C)CCC([C@H](C)C(=O)N4CCC(C)CC4)[C@H](O)[C@H]3[C@@H]2C)cc1 (some centres undefined) | inconclusive: 3.98 µM [inhibitor, partial curve] | – | – |
| COc1ccccc1C1CNC(=O)c2nc(-c3cc(C(C)(C)C)[nH]n3)[nH]c2C1 (centres undefined) | inconclusive: 4.47 µM [inhibitor, partial curve] | – | – |
| O=C(N[C@@H]1CN(CC2CC2)C[C@H]1CO)c1ccccc1 | – | inactive: -25.2% | – |
| Cn1ccnc1CNC[C@H]1Cn2c(-c3ccccc3)cnc2CO1 | inconclusive: 11.2 µM [inhibitor, partial curve, poor fit] | – | – |
| O=C(c1ccc(C(F)(F)F)cc1)N1CC2(Cc3ccccc3NC2=O)C1 | – | inconclusive: -55% [inhibitor] | – |
| COc1ccccc1C(=O)N(C)Cc1cccn1C | – | inactive: 9.01% [at 44.1 µM] | – |
| CCCC(=O)N1Cc2ccccc2CC2(CCN(Cc3ccncc3)C2)C1 (centres undefined) | active: 11.2 µM | – | – |
| COCCNC(=O)C[C@@H]1C[C@H]2O[C@H](CNC(=O)Nc3cccc(Cl)c3)[C@@H](O)[C@H]2O1 | – | inactive: 20.7% [at 44.1 µM] | – |

| Compound | Potency | activity, negative = inhibition | outcome |
| --- | --- | --- | --- |
| Cc1ccc(NC(=O)c2nc(S(C)(=O)=O)ncc2N(Cc2ccco2)Cc2ccccc2F)c(C)c1 | inconclusive: 17.8 µM [inhibitor, single point] | – | – |
| CN(C)CC(=O)N1CC(F)(F)C[C@H]1c1nc(C2CC2)no1 | inconclusive: 3.16 µM [inhibitor, partial curve, poor fit] | – | – |
| O=C(Nc1ccc(F)cc1)[C@@H]1C[C@@H](c2ccc(F)cc2)N([S+](=O)([O-])c2cccnc2)C1 | inconclusive: 15.8 µM [inhibitor, partial curve, poor fit] | – | – |
| Cc1ccc(C(=O)N2CCC(N3C(=O)CCC3C(=O)NCc3ccccc3)CC2)c(C)c1 (centres undefined) | inconclusive: 11.2 µM [inhibitor, single point] | – | – |
| COCCn1c(CNC(=O)c2cccc(N(C)C)c2)nc2cccnc21 | – | inactive: -2.3% | – |
| CC(=O)c1ccc(N2CCN(C(=O)C3CCN(S(=O)(=O)c4ccc(Br)s4)CC3)CC2)cc1 | inconclusive: 17.8 µM [inhibitor, partial curve, poor fit] | – | – |
| Cc1oc2c(c1C(=O)N(C)CC(=O)N1CCOCC1)CN(Cc1ccc(F)cc1)CC2 | inconclusive: 11.2 µM [inhibitor, partial curve] | – | – |
| O=C(c1ccc(C(F)(F)F)s1)N1CCc2c(nc(-c3ccccc3)[nH]c2=O)C1 | inconclusive: 2.51 µM [inhibitor, partial curve, poor fit] | – | – |
| COCCCNC(=O)c1cn(CC(C)C)c(=O)c2c1c1ccccc1n2C | inconclusive: 10 µM [inhibitor, single point] | – | – |
| CS(=O)(=O)N1CC2(CCCCN2CC2CC2)Cc2ccccc21 (centres undefined) | inconclusive: 20 µM [inhibitor, single point] | – | – |
| Cc1ccc(-c2nc(C(=O)N3CCN(Cc4ccc5c(c4)OCO5)CC3)no2)cc1 | active: 11.2 µM | – | – |
| Cc1ccc2c(CNCc3cccc(Cl)c3)c(C(=O)O)n(Cc3ccc(F)cc3Cl)c2c1 | – | inactive: 34% | – |
| Cc1ccc(C(=O)Nc2ccc3nc(SCC(=O)N4CCc5ccccc54)sc3c2)cc1 | inconclusive: 10 µM [inhibitor, single point] | – | – |
| CCOc1cc(C(=O)N2CCC(Cc3nc(-c4ccccc4)no3)CC2)cc(OCC)c1OCC | inconclusive: 17.8 µM [inhibitor, single point] | – | – |
| COc1cccc(CN2CC[C@@](C)(O)[C@H](N3CCCC3)C2)c1OC | inconclusive: 3.98 µM [inhibitor, single point] | – | – |
| O=c1cc(-c2cccnc2)oc2c(NCc3ccc(F)cc3)nccc12 | active: 11.2 µM | – | – |
| Cc1ccccc1S(=O)Cc1ccc(C(=O)NC2CCCCCC2)o1 (centres undefined) | inconclusive: 17.8 µM [inhibitor, single point] | – | – |
| CCn1ncc(NC(=O)Cn2ncc3cc(-c4ccc(C(=O)N(C)C)cc4)ccc32)n1 | inconclusive: 7.08 µM [inhibitor, partial curve, poor fit] | – | – |
| O=C(Nc1ccc(C(F)(F)F)cc1)c1cc(S(=O)(=O)NC2CCCCCC2)ccc1F | active: 5.62 µM | – | – |
| c1ccc2ncc(CN3CC[C@H](c4nc5ccccc5[nH]4)C3)cc2c1 | active: 11.2 µM | – | – |
